# The list shows a part of the results.
# Key:
# Assay in all cases: glycan array binding signal (z-score within array); higher = stronger binding
# Details in all cases: glycan notation: IUPAC condensed, linker removed
# [1] = target: Neu5Ac(a2-3)Gal(b1-3)GalNAc(b1-3)Gal(b1-4)GlcNAc
# Procedure, shortened: (§1)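 Glycan array data came from 3228 arrays in the Consortium for Functional Glycomics database, and only arrays with an available protein sequence were kept. Glycan names were put into IUPAC-condensed notation, and columns mapping to the same glycan were averaged. The binding signal is a within-array Z-score, averaged across arrays of one protein sequence run at different concentrations or buffers and across linkers. A negative Z-score can be read as non-binding.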
# [2] = target: Neu5Ac(a2-3)Gal(b1-3)GalNAc(b1-4)[Neu5Ac(a2-3)]Gal(b1-4)Glc
# Procedure, shortened: as §1
# [3] = target: Neu5Ac(a2-3)Gal(b1-3)GalNAc6S
# Procedure, shortened: as §1
# [4] = target: Neu5Ac(a2-3)Gal(b1-3)GlcNAc
# Procedure, shortened: as §1
# [5] = target: Neu5Ac(a2-3)Gal(b1-3)GlcNAc(b1-3)Gal(b1-3)GlcNAc
# Procedure, shortened: as §1
# [6] = target: Neu5Ac(a2-3)Gal(b1-3)GlcNAc6S
# Procedure, shortened: as §1
# [7] = target: Neu5Ac(a2-3)Gal(b1-3)[Fuc(a1-4)]GlcNAc
# Procedure, shortened: as §1
# [8] = target: Neu5Ac(a2-3)Gal(b1-3)[Fuc(a1-4)]GlcNAc(b1-3)Gal(b1-4)[Fuc(a1-3)]GlcNAc
# Procedure, shortened: as §1
# [9] = target: Neu5Ac(a2-3)Gal(b1-3)[Neu5Ac(a2-3)Gal(b1-4)]GlcNAc
# Procedure, shortened: as §1
# [10] = target: Neu5Ac(a2-3)Gal(b1-3)[Neu5Ac(a2-6)]GalNAc
# Procedure, shortened: as §1
# Neu5Ac(a2-3)Gal(b1-4)Glc = target: Neu5Ac(a2-3)Gal(b1-4)Glc
# Procedure, shortened: as §1
# [11] = target: Neu5Ac(a2-3)Gal(b1-4)GlcNAc
# Procedure, shortened: as §1
# [12] = target: Neu5Ac(a2-3)Gal(b1-4)GlcNAc(b1-2)Man(a1-3)[GlcNAc(b1-2)Man(b1-4)GlcNAc(b1-2)Man(a1-6)]Man(b1-4)GlcNAc(b1-4)GlcNAc
# Procedure, shortened: as §1
# [13] = target: Neu5Ac(a2-3)Gal(b1-4)GlcNAc(b1-2)Man(a1-3)[Neu5Ac(a2-6)Gal(b1-4)GlcNAc(b1-2)Man(a1-6)]Man(b1-4)GlcNAc(b1-4)GlcNAc
# Procedure, shortened: as §1
# [14] = target: Neu5Ac(a2-3)Gal(b1-4)GlcNAc(b1-3)Gal(b1-3)GlcNAc
# Procedure, shortened: as §1
# [15] = target: Neu5Ac(a2-3)Gal(b1-4)GlcNAc(b1-3)Gal(b1-4)GlcNAc
# Procedure, shortened: as §1
# [16] = target: Neu5Ac(a2-3)Gal(b1-4)GlcNAc(b1-3)Gal(b1-4)GlcNAc(b1-3)Gal(b1-4)GlcNAc
# Procedure, shortened: as §1
# [17] = target: Neu5Ac(a2-3)Gal(b1-4)GlcNAc(b1-3)Gal(b1-4)[Fuc(a1-3)]GlcNAc
# Procedure, shortened: as §1
# [18] = target: Neu5Ac(a2-3)Gal(b1-4)GlcNAc(b1-6)[Gal(b1-3)]GalNAc
# Procedure, shortened: as §1
# [19] = target: Neu5Ac(a2-3)Gal(b1-4)GlcNAc(b1-6)[Neu5Ac(a2-3)Gal(b1-3)]GalNAc
# Procedure, shortened: as §1
# [20] = target: Neu5Ac(a2-3)Gal(b1-4)GlcNAc6S
# Procedure, shortened: as §1
# [21] = target: Neu5Ac(a2-3)Gal(b1-4)[Fuc(a1-3)]GlcNAc
# Procedure, shortened: as §1
# [22] = target: Neu5Ac(a2-3)Gal(b1-4)[Fuc(a1-3)]GlcNAc(b1-3)Gal
# Procedure, shortened: as §1
# [23] = target: Neu5Ac(a2-3)Gal(b1-4)[Fuc(a1-3)]GlcNAc(b1-3)Gal(b1-4)GlcNAc
# Procedure, shortened: as §1
# [24] = target: Neu5Ac(a2-3)Gal(b1-4)[Fuc(a1-3)]GlcNAc(b1-3)Gal(b1-4)[Fuc(a1-3)]GlcNAc(b1-3)Gal(b1-4)[Fuc(a1-3)]GlcNAc
# Procedure, shortened: as §1
# [25] = target: Neu5Ac(a2-3)Gal(b1-4)[Fuc(a1-3)]GlcNAc(b1-6)[Gal(b1-3)]GalNAc
# Procedure, shortened: as §1
# [26] = target: Neu5Ac(a2-3)Gal(b1-4)[Fuc(a1-3)]GlcNAc6S
# Procedure, shortened: as §1
# [27] = target: Neu5Ac(a2-3)Gal6S(b1-4)GlcNAc
# Procedure, shortened: as §1
# [28] = target: Neu5Ac(a2-3)Gal6S(b1-4)[Fuc(a1-3)]GlcNAc
# Procedure, shortened: as §1
# Neu5Ac(a2-3)GalNAc = target: Neu5Ac(a2-3)GalNAc
# Procedure, shortened: as §1
# [29] = target: Neu5Ac(a2-3)GalNAc(b1-4)GlcNAc
# Procedure, shortened: as §1
# [30] = target: Neu5Ac(a2-3)[GalNAc(b1-4)]Gal(b1-4)Glc
# Procedure, shortened: as §1
# [31] = target: Neu5Ac(a2-3)[GalNAc(b1-4)]Gal(b1-4)GlcNAc
# Procedure, shortened: as §1
# [32] = target: Neu5Ac(a2-3)[Neu5Ac(a2-6)]GalNAc
# Procedure, shortened: as §1
# Neu5Ac(a2-6)Gal = target: Neu5Ac(a2-6)Gal
# Procedure, shortened: as §1
# Neu5Ac(a2-6)Gal(b1-4)Glc = target: Neu5Ac(a2-6)Gal(b1-4)Glc
# Procedure, shortened: as §1
# [33] = target: Neu5Ac(a2-6)Gal(b1-4)GlcNAc
# Procedure, shortened: as §1
# [34] = target: Neu5Ac(a2-6)Gal(b1-4)GlcNAc(b1-2)Man(a1-3)[Gal(b1-4)GlcNAc(b1-2)Man(a1-6)]Man(b1-4)GlcNAc(b1-4)GlcNAc
# Procedure, shortened: as §1
binder,measurement,setting,value
Mannose Binding Protein (Lactobacillus plantarum) (protein) AERSEAALTHVDKDNFLKYFSLNGSATYDAKTGIVTITPNQNNQVGNFSLTSKIDMNKSFTLTGQVNLGSNPNGADGIGFAFHSGNTTDVGNAGGNLGIGGLQDAIGFKLDTWFNSYQAPSSDKNGSEISSTNSNGFGWNGDSANAPYGTFVKTSNQEISTANGSKVQRWWAQDTGESQALSKADIDGNFHDFVVNYDGATRTLTVSYTQASGKVLTWKTTVASSYQAMAMVVSASTGAAKNLQQFKLTSFDFQEAATVNVKYVDTTGHQLAQG,glycan array binding signal (z-score),[1],-0.704
same,glycan array binding signal (z-score),[2],0.338
same,glycan array binding signal (z-score),[3],0.283
same,glycan array binding signal (z-score),[4],-0.018
same,glycan array binding signal (z-score),[5],-0.526
same,glycan array binding signal (z-score),[6],-0.327
same,glycan array binding signal (z-score),[7],0.369
same,glycan array binding signal (z-score),[8],-0.477
same,glycan array binding signal (z-score),[9],-0.43
same,glycan array binding signal (z-score),[10],-0.113
same,glycan array binding signal (z-score),Neu5Ac(a2-3)Gal(b1-4)Glc,-0.174
same,glycan array binding signal (z-score),[11],-0.332
same,glycan array binding signal (z-score),[12],0.211
same,glycan array binding signal (z-score),[13],-0.211
same,glycan array binding signal (z-score),[14],-0.484
same,glycan array binding signal (z-score),[15],-0.51
same,glycan array binding signal (z-score),[16],-0.035
same,glycan array binding signal (z-score),[17],-0.472
same,glycan array binding signal (z-score),[18],-0.479
same,glycan array binding signal (z-score),[19],0.41
same,glycan array binding signal (z-score),[20],-0.106
same,glycan array binding signal (z-score),[21],-0.561
same,glycan array binding signal (z-score),[22],-0.14
same,glycan array binding signal (z-score),[23],1.15
same,glycan array binding signal (z-score),[24],-0.013
same,glycan array binding signal (z-score),[25],1.06
same,glycan array binding signal (z-score),[26],0.405
same,glycan array binding signal (z-score),[27],-0.421
same,glycan array binding signal (z-score),[28],-0.349
same,glycan array binding signal (z-score),Neu5Ac(a2-3)GalNAc,-0.473
same,glycan array binding signal (z-score),[29],-0.549
same,glycan array binding signal (z-score),[30],-0.165
same,glycan array binding signal (z-score),[31],-0.421
same,glycan array binding signal (z-score),[32],-0.459
same,glycan array binding signal (z-score),Neu5Ac(a2-6)Gal,-0.319
same,glycan array binding signal (z-score),Neu5Ac(a2-6)Gal(b1-4)Glc,-0.653
same,glycan array binding signal (z-score),[33],1.13
same,glycan array binding signal (z-score),[34],-0.581

# — the supplement of paper PMC8728848
